Assay results from US20220119536A1 (Boehringer Ingelheim, published 2022).

target: human TrkB receptor (human, UniProt Q16620 32-822); experiment: cell-based or functional assay
UniProt Q16620, sequence (Q16620 32-822): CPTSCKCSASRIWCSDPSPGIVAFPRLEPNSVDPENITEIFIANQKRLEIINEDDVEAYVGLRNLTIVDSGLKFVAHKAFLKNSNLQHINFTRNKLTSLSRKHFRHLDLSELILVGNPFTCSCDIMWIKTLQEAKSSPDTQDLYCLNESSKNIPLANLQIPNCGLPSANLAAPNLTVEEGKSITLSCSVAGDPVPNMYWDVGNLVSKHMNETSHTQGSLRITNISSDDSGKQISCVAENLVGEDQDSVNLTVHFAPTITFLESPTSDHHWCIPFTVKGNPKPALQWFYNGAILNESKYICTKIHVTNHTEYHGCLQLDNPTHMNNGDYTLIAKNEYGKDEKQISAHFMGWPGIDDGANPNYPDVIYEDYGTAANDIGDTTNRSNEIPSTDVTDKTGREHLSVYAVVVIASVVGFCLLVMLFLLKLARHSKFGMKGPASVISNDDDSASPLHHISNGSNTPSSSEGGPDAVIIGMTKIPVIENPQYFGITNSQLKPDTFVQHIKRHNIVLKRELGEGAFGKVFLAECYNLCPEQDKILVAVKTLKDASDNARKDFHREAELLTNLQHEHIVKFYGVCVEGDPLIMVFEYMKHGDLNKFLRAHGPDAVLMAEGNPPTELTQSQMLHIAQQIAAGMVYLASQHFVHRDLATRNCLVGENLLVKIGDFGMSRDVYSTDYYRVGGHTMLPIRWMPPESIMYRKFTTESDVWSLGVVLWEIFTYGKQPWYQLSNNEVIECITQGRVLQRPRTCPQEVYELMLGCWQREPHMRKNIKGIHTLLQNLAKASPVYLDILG

Row | Binder | TrkB-phosphorylation efficacy (AlphaLISA counts) | TrkB-phosphorylation efficacy relative to parental clone without CC bridge (%) | TrkB-phosphorylation potency (EC50, nM)
1 | TPP-22190 (bispecific antibody, human IgG1, kappa) light: DIQLTQSPSSLSASVGDRVTITCSASQDISNYLNWYQQKPGKAPKVLIYFTSSLHSGVPSRFSGSGSGTGFTLTISSLQPEDFATYYCQQYSTVPWTFGQGTKVEIKRTVAAPSVFIFPPSDEQLKSGTASVVCLLNNFYPREAKVQWKVDNALQSGNSQESVTEQDSKDSTYSLSSTLTLSKADYEKHKVYACEVTHQGLSSPVTKSFNRGEC heavy: QVQLVESGGGLVQPGGSLRLSCAASGYDFTHYGMNWVRQAPGKGLEWVGWINTYTGEPTYAADFKRRFTFSLDTSKSTAYLQMNSLRAEDTAVYYCAKYPYYYGTSHWYFDVWGQGTLVTVSSASTKGPSVFPLAPSSKSTSGGTAALGCLVKDYFPEPVTVSWNSGALTSGVHTFPAVLQSSGLYSLSSVVTVPSSSLGTQTYICNVNHKPSNTKVDKRV[in this place human IgG1 Fc with changes]GGGGSGGGGSDIQMTQSPSSLSASVGDRVTITCRTSENVYSNLAWYQQKPGKAPKLLIYAASNLQSGVPSRFSGSGSGTDYTFTISSLQPEDIATYYCQHFWGSPFTFGQGTKLEIKGGSEGKSSGSGSESKSTGGSQVQLVQSGAEVKKPGASVKVSCKASGYTFTNYDIIWVRQAPGQGLEWMGYINPYNDGTKYNEKFKGRVTMTRDTSTSTVYMELSSLRSEDTAVYYCARLLKYRRFRYYAIDYWGQGTTVTVSS | 4220 AlphaLISA counts | 100% | 9.95 nM
2 | TPP-22215 (bispecific antibody, human IgG1, kappa) light: DIQLTQSPSSLSASVGDRVTITCSASQDISNYLNWYQQKPGKAPKVLIYFTSSLHSGVPSRFSGSGSGTGFTLTISSLQPEDFATYYCQQYSTVPWTFGQGTKVEIKRTVAAPSVFIFPPSDEQLKSGTASVVCLLNNFYPREAKVQWKVDNALQSGNSQESVTEQDSKDSTYSLSSTLTLSKADYEKHKVYACEVTHQGLSSPVTKSFNRGEC heavy: EVQLVQSGGGLVQPGGSLRLSCAASGYDFTHYGMNWVRQAPGKGLEWVGWINTYTGEPTYAADFKRRFTFSLDTSKSTAYLQMNSLRAEDTAVYYCAKYPYYYGTSHWYFDVWGQGTLVTVSSASTKGPSVFPLAPSSKSTSGGTAALGCLVKDYFPEPVTVSWNSGALTSGVHTFPAVLQSSGLYSLSSVVTVPSSSLGTQTYICNVNHKPSNTKVDKRV[in this place human IgG1 Fc with changes]GGGGSGGGGSDIQMTQSPSSLSASVGDRVTITCRTSENVYSNLAWYQQKPGKAPKLLIYAASNLQSGVPSRFSGSGSGTDYTFTISSLQPEDIATYYCQHFWGSPFTFGCGTKLEIKGGSEGKSSGSGSESKSTGGSQVQLVQSGAEVKKPGASVKVSCKASGYTFTNYDIIWVRQAPGQCLEWMGYINPYNDGTKYNEKFKGRVTMTRDTSTSTVYMELSSLRSEDTAVYYCARLLKYRRFRYYAIDYWGQGTTVTVSS | 5790 AlphaLISA counts | 119% | 1.12 nM
3 | TPP-22191 (bispecific antibody, human IgG1, kappa) light: DIQLTQSPSSLSASVGDRVTITCSASQDISNYLNWYQQKPGKAPKVLIYFTSSLHSGVPSRFSGSGSGTGFTLTISSLQPEDFATYYCQQYSTVPWTFGQGTKVEIKRTVAAPSVFIFPPSDEQLKSGTASVVCLLNNFYPREAKVQWKVDNALQSGNSQESVTEQDSKDSTYSLSSTLTLSKADYEKHKVYACEVTHQGLSSPVTKSFNRGEC heavy: EVQLVQSGGGLVQPGGSLRLSCAASGYDFTHYGMNWVRQAPGKGLEWVGWINTYTGEPTYAADFKRRFTFSLDTSKSTAYLQMNSLRAEDTAVYYCAKYPYYYGTSHWYFDVWGQGTLVTVSSASTKGPSVFPLAPSSKSTSGGTAALGCLVKDYFPEPVTVSWNSGALTSGVHTFPAVLQSSGLYSLSSVVTVPSSSLGTQTYICNVNHKPSNTKVDKRV[in this place human IgG1 Fc with changes]GGGGSGGGGSDIQMTQSPSSLSASVGDRVTITCRTSENVYSNLAWYQQKPGKAPKLLIYAASNLQSGVPSRFSGSGSGTDYTFTISSLQPEDIATYYCQHFWGSPFTFGQGTKLEIKGGSEGKSSGSGSESKSTGGSQVQLVQSGAEVKKPGASVKVSCKASGYTFTNYDIIWVRQAPGQGLEWMGYINPYNDGTKYNEKFKGRVTMTRDTSTSTVYMELSSLRSEDTAVYYCARLLKYRRFRYYAIDYWGQGTTVTVSS | 4850 AlphaLISA counts | 100% | 5.49 nM
